# Measured values: PubChem BioAssay (Tox21)
# Inconclusive results, whose numbers are uncertain, are shown with a selection of clear calls. For some assays here: Potencies beside an inconclusive call are fits to weak or partial responses and may not hold up. Active and inactive are the calls of the source. Unless noted, calls come from the whole dose curve.
# Experiments:
# [1] = molecular target: Estrogen receptor beta (Homo sapiens) (UniProt Q92731); assay: qHTS assay to identify small molecule agonists of the estrogen receptor beta (ER-beta) signaling pathway (AID 1259377; active = well fitted activation curve with a large enough effect in the signal ratio in the repeat runs, not every such curve was filed as active; inconclusive = weak or mixed curves, or effect the other way; the % refers to the signal ratio; note: potency is the fitted concentration of half-maximal effect; for activation: % is set by controls: 0 for no effect and ±100 for the full control effect); details: ER-beta-UAS-bla HEK293T, beta-lactamase FRET ratio, 16 h; activation: at 92.4 µM (top of the series) unless noted
# Sequence of UniProt Q92731 (Q92731 whole entry, looked up): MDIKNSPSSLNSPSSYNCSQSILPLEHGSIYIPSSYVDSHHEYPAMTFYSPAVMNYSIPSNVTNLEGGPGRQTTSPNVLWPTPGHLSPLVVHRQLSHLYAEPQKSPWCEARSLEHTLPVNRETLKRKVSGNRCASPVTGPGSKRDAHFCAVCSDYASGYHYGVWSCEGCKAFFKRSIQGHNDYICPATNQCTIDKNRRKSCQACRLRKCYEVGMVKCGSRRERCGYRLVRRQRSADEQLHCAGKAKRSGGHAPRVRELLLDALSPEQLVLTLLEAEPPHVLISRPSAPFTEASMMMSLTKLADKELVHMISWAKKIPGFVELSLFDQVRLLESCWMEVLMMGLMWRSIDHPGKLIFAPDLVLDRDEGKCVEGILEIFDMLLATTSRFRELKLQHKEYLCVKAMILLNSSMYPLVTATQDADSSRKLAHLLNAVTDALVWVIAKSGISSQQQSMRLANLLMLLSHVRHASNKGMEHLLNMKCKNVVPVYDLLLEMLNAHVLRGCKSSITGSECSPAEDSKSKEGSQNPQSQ
# In short: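 ER-beta-UAS-bla HEK293T (GripTite) cells carrying a UAS-driven beta-lactamase reporter, in medium with 2% charcoal-stripped FBS, were exposed to compounds for 16 hr at 37C; LiveBLAzer B/G FRET substrate was then added and fluorescence read after 2 hours at room temperature.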
# [2] = molecular target: Thyrotropin receptor (Homo sapiens) (UniProt P16473); assay: qHTS assay to identify small molecule antagonists of the thyroid stimulating hormone receptor (TSHR) signaling pathway (AID 1259385); details: TSHR-HEK293 cAMP HTRF, TSH-stimulated antagonist mode; activity change, negative = inhibition: at 92.4 µM (top of the series) unless noted; note: nearly all actives have a fitted effect of over 20% in size; note: potency is the fitted concentration of half-maximal effect
# Sequence of UniProt P16473 (P16473 whole entry, looked up): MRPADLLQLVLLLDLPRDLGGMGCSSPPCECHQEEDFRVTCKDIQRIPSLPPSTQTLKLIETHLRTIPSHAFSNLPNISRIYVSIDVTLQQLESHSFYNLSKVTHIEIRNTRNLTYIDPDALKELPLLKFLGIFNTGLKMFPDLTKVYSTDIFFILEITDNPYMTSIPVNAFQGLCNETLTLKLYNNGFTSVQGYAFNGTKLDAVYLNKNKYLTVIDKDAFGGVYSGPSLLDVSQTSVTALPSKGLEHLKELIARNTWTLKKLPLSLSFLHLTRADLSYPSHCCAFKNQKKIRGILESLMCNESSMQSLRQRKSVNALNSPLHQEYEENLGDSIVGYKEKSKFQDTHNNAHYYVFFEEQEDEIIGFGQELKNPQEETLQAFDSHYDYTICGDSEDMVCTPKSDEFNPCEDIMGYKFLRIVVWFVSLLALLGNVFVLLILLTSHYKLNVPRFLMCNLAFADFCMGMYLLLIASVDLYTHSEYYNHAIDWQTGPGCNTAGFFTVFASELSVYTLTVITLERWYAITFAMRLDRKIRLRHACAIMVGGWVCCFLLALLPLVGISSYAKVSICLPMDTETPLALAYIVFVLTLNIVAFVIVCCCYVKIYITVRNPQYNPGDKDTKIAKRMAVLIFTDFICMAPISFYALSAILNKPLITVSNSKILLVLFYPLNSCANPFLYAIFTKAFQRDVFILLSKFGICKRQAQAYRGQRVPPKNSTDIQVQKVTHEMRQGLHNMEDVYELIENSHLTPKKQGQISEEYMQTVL
# In short: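 Antagonist mode: compound-treated TSHR-expressing HEK293 cells were stimulated with 1.5 ng/mL TSH (final) in presence of Ro20-1724 for 30 min at RT. HTRF cAMP detection after 1 h; each compound tested at 15 concentrations, triplicate.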
# [3] = qHTS assay to identify small molecule antagonists of the progesterone receptor (PR) signaling pathway - cell viability counter screen (AID 1346798; active = well fitted curve in the direction sought with a large enough effect in the repeat runs; inconclusive = weak or mixed curves; inactive = no such curve, though single readings can be large; an effect the other way counts as inactive or inconclusive; note: nearly all actives have a fitted effect of over 50% in size; note: potency is the fitted concentration of half-maximal effect; for activity change, negative = cytotoxicity: % is set by controls: 0 for no effect and ±100 for the full control effect)
# In short: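 PR-UAS-bla HEK293T cells in medium with 2% charcoal-stripped FBS were treated with compounds plus R5020 for 16 hr at 37C. Cell viability was then read by CellTiter-Glo luminescence after 30 min at room temperature in the same wells.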
# [4] = qHTS assay to identify small molecule agonists of the progesterone receptor (PR) signaling pathway - cell viability counter screen (AID 1346799); note: nearly all actives have a fitted effect of over 45% in size; note: potency is the fitted concentration of half-maximal effect
# In short: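 PR-UAS-bla HEK293T cells, 3,000 per well in medium with 2% charcoal-stripped FBS, were preincubated 6 hr at 37C, then exposed to compounds for 16 hr; viability was read as CellTiter-Glo luminescence after 30 min at room temperature.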
# [5] = molecular target: Progesterone receptor (Homo sapiens) (UniProt P06401); assay: qHTS assay to identify small molecule antagonists of the progesterone receptor (PR) signaling pathway (AID 1346795; active = well fitted inhibition curve with a large enough effect in the signal ratio in the repeat runs, not every such curve was filed as active; inconclusive = weak or mixed curves; the % refers to the signal ratio; note: potency is the fitted concentration of half-maximal effect); details: PR-UAS-bla HEK293T, beta-lactamase FRET ratio, 16 h; activity change, negative = inhibition: at 92.4 µM (top of the series) unless noted
# Sequence of UniProt P06401 (P06401 whole entry, looked up): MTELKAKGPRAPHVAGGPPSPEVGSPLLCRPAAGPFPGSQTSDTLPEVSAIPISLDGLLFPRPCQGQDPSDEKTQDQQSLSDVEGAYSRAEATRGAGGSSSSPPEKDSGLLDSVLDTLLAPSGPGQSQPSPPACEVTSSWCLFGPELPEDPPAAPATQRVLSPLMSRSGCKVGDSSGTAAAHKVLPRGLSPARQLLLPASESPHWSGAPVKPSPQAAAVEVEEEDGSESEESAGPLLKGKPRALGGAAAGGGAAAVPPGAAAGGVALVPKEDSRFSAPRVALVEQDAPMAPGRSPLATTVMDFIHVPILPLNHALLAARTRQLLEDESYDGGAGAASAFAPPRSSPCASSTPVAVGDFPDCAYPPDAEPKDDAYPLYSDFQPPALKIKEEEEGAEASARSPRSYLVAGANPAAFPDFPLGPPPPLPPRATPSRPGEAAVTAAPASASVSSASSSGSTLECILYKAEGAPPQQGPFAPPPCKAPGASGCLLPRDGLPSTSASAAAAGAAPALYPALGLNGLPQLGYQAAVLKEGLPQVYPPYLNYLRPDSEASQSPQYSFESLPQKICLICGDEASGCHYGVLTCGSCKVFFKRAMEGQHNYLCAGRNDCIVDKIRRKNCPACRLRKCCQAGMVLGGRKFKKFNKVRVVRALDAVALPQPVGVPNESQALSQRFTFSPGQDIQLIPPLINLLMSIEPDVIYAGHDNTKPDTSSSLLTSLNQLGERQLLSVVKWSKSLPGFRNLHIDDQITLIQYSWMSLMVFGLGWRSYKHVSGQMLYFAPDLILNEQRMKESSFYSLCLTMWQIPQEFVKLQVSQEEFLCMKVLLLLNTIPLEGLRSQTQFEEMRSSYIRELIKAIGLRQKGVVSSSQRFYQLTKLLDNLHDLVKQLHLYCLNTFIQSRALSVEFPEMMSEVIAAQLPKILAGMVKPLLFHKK
# In short: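 PR-UAS-bla HEK293T cells carrying a UAS-driven beta-lactamase reporter were plated in medium with 2% charcoal-stripped FBS and rested 6 hr at 37C. Compounds were added with 1 nM R5020 (final) for 16 hr, then FRET substrate loaded 2 hr at room temperature.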
# [6] = molecular target: Progesterone receptor (Homo sapiens) (UniProt P06401); assay: qHTS assay to identify small molecule agonists of the progesterone receptor (PR) signaling pathway (AID 1346784); details: PR-UAS-bla HEK293T, beta-lactamase FRET ratio, 16 h; activation: at 92.4 µM (top of the series) unless noted; note: nearly all actives have a fitted effect of over 30% in size; note: potency is the fitted concentration of half-maximal effect
# In short: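 PR-UAS-bla HEK 293T cells carrying a UAS-driven beta-lactamase reporter were seeded in medium with 2% charcoal-stripped FBS, preincubated 6 hr at 37C, then exposed to compounds in DMSO for 16 hr; agonism was read by LiveBLAzer B/G FRET fluorescence.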
# [7] = qHTS assay to identify small molecule agonists of the TGF-beta/Smad signaling pathway - cell viability counter screen (AID 1346829; active = well fitted curve in the direction sought with a large enough effect in the repeat runs; inconclusive = weak or mixed curves; inactive = no such curve, though single readings can be large; an effect the other way counts as inactive or inconclusive; note: top concentration of the series differs between compounds; % is set by controls: 0 for no effect and ±100 for the full control effect; nearly all actives have a fitted effect of over 45% in size)
# In short: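 SBE-bla HEK 293T cells plated overnight, compound exposure 5 hr at 37 C. Viability read in the same wells by CellTiter-Glo luminescence after 30 min at room temperature, following the beta-lactamase read.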
# [8] = qHTS assay to identify small molecule agonists of the estrogen receptor beta (ER-beta) signaling pathway - cell viability counter screen (AID 1259380; active = well fitted curve in the direction sought with a large enough effect in the repeat runs; inconclusive = weak or mixed curves; inactive = no such curve, though single readings can be large; an effect the other way counts as inactive or inconclusive; note: % is set by controls: 0 for no effect and ±100 for the full control effect; nearly all actives have a fitted effect of over 30% in size)
# In short: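 Cells used were ER-beta-UAS-bla HEK293T in medium with 2% charcoal-stripped FBS. They were treated for 16 hr at 37C. Viability came from CellTiter-Glo luminescence.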
# [9] = qHTS assay to identify small molecule agonists of the estrogen receptor alpha (ER-alpha) signaling pathway in the presence of an antagonist - cell viability counter screen (AID 1259386; active = well fitted curve in the direction sought with a large enough effect in the repeat runs; inconclusive = weak or mixed curves; inactive = no such curve, though single readings can be large; an effect the other way counts as inactive or inconclusive;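 note: cells exposed to compounds for 22 h at 37 °C before the viability read; % is set by controls: 0 for no effect and ±100 for the full control effect; nearly all actives have a fitted effect of over 30% in size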)
# In short: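 ICI-182,780 at 10.0nM final accompanies the compound titration (15 concentrations, 22hr, 37C) on VM7Luc4E2 cells. The CellTiter-Fluor fluorescence readout runs in the same wells as the luciferase assay.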
# [10] = molecular target: Thyrotropin-releasing hormone receptor (Homo sapiens) (UniProt P34981); assay: qHTS assay to identify small molecule antagonists of the thyrotropin-releasing hormone receptor (TRHR) signaling pathway (AID 1346877; active = well fitted inhibition curve with a large enough effect in the repeat runs, not every such curve was filed as active; inconclusive = weak or mixed curves; note: % is set by controls: 0 for no effect and ±100 for the full control effect)
# Sequence of UniProt P34981 (P34981 whole entry, looked up): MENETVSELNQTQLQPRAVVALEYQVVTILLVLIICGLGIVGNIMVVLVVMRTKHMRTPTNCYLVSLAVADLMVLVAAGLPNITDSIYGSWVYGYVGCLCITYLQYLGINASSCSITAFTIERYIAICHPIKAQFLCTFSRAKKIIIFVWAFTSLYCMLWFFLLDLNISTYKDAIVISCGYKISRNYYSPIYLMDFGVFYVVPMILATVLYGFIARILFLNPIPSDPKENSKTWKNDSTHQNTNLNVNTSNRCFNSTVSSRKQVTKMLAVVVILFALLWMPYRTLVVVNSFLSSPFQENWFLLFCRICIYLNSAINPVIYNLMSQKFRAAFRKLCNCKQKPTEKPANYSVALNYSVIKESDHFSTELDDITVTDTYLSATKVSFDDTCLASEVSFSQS
# In short: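 Screening used HEK293 cells engineered with TRHR, with a brief 5 min room-temperature compound exposure preceding addition of TRH to 1 nM. The read-out was kinetic calcium-dye fluorescence, concentration-response from 15 doses in triplicate.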
# [11] = qHTS assay to identify small molecule antagonists of the estrogen receptor beta (ER-beta) signaling pathway - cell viability counter screen (AID 1259382; active = well fitted curve in the direction sought with a large enough effect in the repeat runs; inconclusive = weak or mixed curves; inactive = no such curve, though single readings can be large; an effect the other way counts as inactive or inconclusive; note: potency is the fitted concentration of half-maximal effect; nearly all actives have a fitted effect of over 55% in size)
# In short: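 Agonist-stimulated (1nM E2) ER-beta-UAS-bla HEK293T cells are incubated with library compounds for 16 hr at 37C. Cell viability is then assessed in the reporter-assay wells by adding CellTiter-Glo and reading luminescence after 30 min.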
# [12] = qHTS assay to identify small molecule agonists or antagonists of the thyroid stimulating hormone receptor (TSHR) signaling pathway - wild type cell line counter screen (AID 1259384); details: HEK293 wild type, cAMP HTRF counter-screen; cAMP activity change: at 92.4 µM (top of the series), hits give high values unless noted; note: % is set by controls: 0 for no effect and ±100 for the full control effect
# In short: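 Counter screen in untransfected Hek293: compounds (15-point titration, triplicate) plus phosphodiesterase inhibitor Ro20-1724 added after 18 h plating; 30 min RT. Intracellular cAMP via competitive d2/cryptate immunoassay, 1 h incubation.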
# Tags give direction and shape of the fitted curve or compound fluorescence and quenching.
compound,measurement,setting,value
Cc1ccc(C(C)C)cc1O,activation,[1],inconclusive: 11.1%
same,Potency,[2],"inconclusive: 0.486 µM [falling, single point]"
same,Potency,[3],inactive
O=C(O)c1cc(C(=O)O)c(C(=O)O)cc1C(=O)O,Potency,[1],inactive
same,Potency,[4],"inconclusive: 2.43 µM [cytotoxic, single point]"
CC(C)=CCC[C@H](C)CCO,Potency,[1],inactive
same,Potency,[5],inactive
O=C(O)c1ccc2cc(O)ccc2c1,Potency,[1],inactive
same,Potency,[5],inactive
O=C(Nc1ccc2c(c1)Cc1ccccc1-2)C(F)(F)F,Potency,[1],"inconclusive: 68.6 µM [rising, partial curve, poor fit]"
same,Potency,[2],"inconclusive: 12.2 µM [falling, full curve]"
same,Potency,[6],inactive
same,Potency,[5],active: 4.33 µM
same,Potency,[3],"inconclusive: 54.5 µM [rising, partial curve, poor fit]"
same,Potency,[4],"inconclusive: 48.6 µM [rising, partial curve]"
COCCOCCOCCOC,Potency,[1],inactive
same,Potency,[3],inactive
same,Potency,[7],inactive
COc1ccc2cc(C=O)ccc2c1,Potency,[1],"inconclusive: 33.5 µM [rising, partial curve, poor fit]"
same,"activity change, negative = inhibition",[5],inconclusive: -3.61% [at 42.5 µM]
O=c1c2ccccc2oc2ccccc12,Potency,[1],"inconclusive: 27.3 µM [activator, partial curve, poor fit]"
same,Potency,[6],inactive
same,Potency,[5],inactive
OCCC1CCCCN1 (stereo not given),Potency,[1],inactive
same,Potency,[2],inactive
N#Cc1ccccc1,activation,[1],inconclusive: 12.8%
same,Potency,[8],inactive
same,Potency,[3],"inconclusive: 68.6 µM [rising, single point]"
same,Potency,[4],inactive
O=C(Nc1ccc(Cl)c(Cl)c1)C1CC1,Potency,[1],inactive
same,Potency,[9],inactive
same,Potency,[5],"inconclusive: 29.8 µM [rising, partial curve, poor fit]"
same,Potency,[4],"inconclusive: 2.11 µM [rising, partial curve, poor fit]"
CCCCCCCCS(=O)(=O)O,Potency,[1],"inconclusive: 61.3 µM [activator, partial curve, poor fit]"
same,Potency,[5],inactive
CC(=O)SCc1ccco1,Potency,[1],inactive
same,Potency,[5],inactive
COc1cccc2sc(N)nc12,Potency,[1],"inconclusive: 27.5 µM [rising, partial curve]"
same,Potency,[6],active: 43.5 µM
CCOC=C(C(=O)OCC)C(=O)OCC,activation,[1],inconclusive: 12.1%
same,Potency,[5],inactive
same,Potency,[4],inactive
O=c1[nH]c2ccccc2c(=O)n1CCCl,Potency,[1],inactive
same,Potency,[8],inactive
same,Potency,[10],inactive
CC(C)c1ccccc1C(C)C,activation,[1],inconclusive: 4.03%
same,Potency,[4],inactive
C/C=C/C(=O)OCC(C)C,Potency,[1],inactive
same,"activity change, negative = inhibition",[5],inconclusive: 12.3%
CC(C)OC(=O)CCCCC(=O)OC(C)C,Potency,[1],inactive
same,Potency,[5],inactive
CC(C)CCCCCCCOC(=O)c1ccc(C(=O)OCCCCCCCC(C)C)c(C(=O)OCCCCCCCC(C)C)c1,Potency,[1],inactive
same,Potency,[5],"inconclusive: 53.6 µM [falling, single point]"
same,Potency,[3],"inconclusive: 53.6 µM [cytotoxic, single point]"
same,Potency,[4],active: 42.6 µM
CCC1(C)NC(=O)NC1=O (stereo not given),Potency,[1],inactive
same,Potency,[5],inactive
C=C(C)C(=O)OCCOP(=O)(O)O,Potency,[1],"inconclusive: 21.3 µM [activator, partial curve, poor fit]"
same,Potency,[3],"inconclusive: 75.7 µM [cytotoxic, single point]"
CCN(CC)C(C)CN1c2ccccc2Sc2ccccc21 (stereo not given),activation,[1],inconclusive: 5.97% [at 42.5 µM]
same,Potency,[5],"inconclusive: 2.98 µM [falling, single point]"
COc1cc(C(C)C)ccc1C,activation,[1],inconclusive: 10.2% [at 19 µM]
same,"activity change, negative = cytotoxicity",[4],inactive: -8.49% [at 19 µM]
CNCCS(=O)(=O)O,activation,[1],inconclusive: 10.4%
same,Potency,[2],inactive
same,Potency,[4],inactive
OCc1c2ccccc2cc2ccccc12,activation,[1],inconclusive: 11.6%
same,"activity change, negative = inhibition",[2],inconclusive: 2.13%
same,Potency,[5],active: 54.6 µM
COc1ccccc1OC(=O)Oc1ccccc1OC,Potency,[1],"inconclusive: 33.5 µM [rising, partial curve]"
same,Potency,[11],"inconclusive: 26.6 µM [cytotoxic, partial curve]"
same,Potency,[5],active: 26.6 µM
same,Potency,[7],inactive
O=C(OC1C[C@H]2CC[C@@H](C1)[N+]21CCCC1)C(O)(c1ccccc1)c1ccccc1 (stereo not given in full),Potency,[1],inactive
same,Potency,[9],inactive
COc1cc2c(cc1N)oc1ccccc12,Potency,[1],inactive
same,cAMP activity change,[12],inconclusive: -1.49%
same,Potency,[2],"inconclusive: 70.1 µM [falling, single point]"
same,Potency,[5],active: 44.2 µM
same,Potency,[4],"inconclusive: 19.7 µM [rising, full curve, poor fit]"
